From the RNAGym collection of RNA variant scans (doi:10.7554/elife.90254) come the findings set out here.

Read counts are not given, so values of variants with three or more changes are uncertain.

First the molecules themselves.
B1: LINE1-mini (parent)
chain: GGCAGAGCUCAACACAGCGUGGCAAAGUGGCUGUGGCUAGACUGCC

Variants of B1 are the subject of the data set. The experiment in a line: self-cleavage, relative activity (ratio to wild type); higher = more cleavage; in vitro, sequencing; the parent is a self-cleaving ribozyme.
GGAACAGCUCAACACAGCGUGGCAAAGGGGCUGUGGCUAGACUGCC: the self-cleavage stood at 0.05. For the variant GGCAGAGCCCAACACCGCGUGGCAAAGUGGCUGUGGCUCGACAGCC, the self-cleavage stood at 0. The value for GGCAGAGCUCAUCACAGCGUGUCAAAGUGGCUUUGAAUAGACUGCC was 0.07; that for GACAGAGCUCAACACAGCGUGGCAAAGUGGCUGUGACUAGACUGCU was 0.12; that for GGAAGAUCUUAACACAGCGUGACAAAGUGGCUGUGGCUAGACUGCC was 0.07.

On to GGCAGAGCUCAACACAUCGUGGCAAAGUGGCUGUGGCUCGAGUGCC, for which the self-cleavage amounted to 0.01. Regarding GGCAGUCCUCAAUACAGCGUGGCAAAGUGGCAGUGGCUAGACUGCC, the self-cleavage came to 0.05. Under GGCAGAGCUAAACACAGCGCGGCAAAGGGGCUCUGGCUAGACUCCC stands 0.01. Under GGCAGAGCUCUACAGAGCGUGGCAAAGUGGCUGUUGCUAGAUUGCG stands 0. Consider GGCAGAGCUGAACACGGCGUGGCCAAGUGGAUGUGGCUAGACUGCC, for which the self-cleavage worked out at 0.02.

Turning to GGCAGAGCUUCACACAGAGUGGCAAAGUCGCUGUGGCUAGACUGCC, the self-cleavage is 0.02. Under GGCAGAGCUCAACACAGAGUGGCAAAGUGACUGGGGGUAGACUGCC stands 0.01; under GGCAGAGCUCAACAUAGCGUGGCAAAGUUGCUGUGGCUCGACUGCC, 0.11. The value for GGCAUAGCUCCACACAGCGUGGCCAAGUGGCCGUGGCUAGACUGCA was 0.04; that for GGCCGAGCUAAACACAGCGUGGCAAAGUGGCUGUGGAUAGACUGCC was 0.02; that for GGCAGAGCUCAACACAGCGUUGCAAAGUGGCUCUGGCUAUACUGCC was 0.02. The value for GCCAGAGCUCAACACUGCGUGGCAAAGUGGCUGUCGCUAGACUGCC was 0.08; that for GGCAGAGCUCAACACAGCGUGGCAAAGCGGCUUUCGCCAGACUGCC was 0.18; that for GACAGAGCUCAACACAGCGCGGCAAAGUGGCCGUGGCUAGACUGCC was 0.1. Take GGCCGAGCUCAACACAGCGUGGCAAAGUGGCUUUGACCAGACUGCC: the self-cleavage was 0.06. For GGCAGAGGUCAACACAGCUUGGCAAAGUGGCUCUGGCUAGACUGCC, the self-cleavage stood at 0.01. GGCAGAGCUUAACACAGCGUGACAACGUGGCUGUGGAUAGGCUGGC: the self-cleavage stood at 0.01. Under GGCAGAGCUCAACACAGCGCGGCAAAGUGGCGGAGGCUAGACUGCA stands 0.04. The value for GGUUGAGUUCAAGUGAGCGUGGCAAAGUGGCUGUGGCUAGACUGCC was 0.65; that for CGCUGAGCUCAACACAGCGUGGCAAAGUGUCUGUGGCUAUACUGCC was 0.02; that for GGCAGAGCUCAACACAGUAUGGCAAAGUGGCGGUGGCUAGACUGCC was 0.04.

GGCAGAGCUCAACACAGAGUGGCAAAGUGAUUGUGCCUAGACUGCC: the self-cleavage was 0.05. The value for GGCAGAGUUCAACACAACGUCGCAAAGUGGCUGUGGCUAGACUGCC was 0.14. For the variant UGCAGAGCUCAACACAGCGAGGCAAAGUGGCUGUGGCUAAACUGCC, the self-cleavage is 0.03. Consider GGCAGGGCACAACACAGCGUGGAAAAGUGGCUGUGGAUAGACUGCC, for which the self-cleavage is 0.02. Under GACAGAGCUCAACUCAGCGCGGCAAAGUGGCUGUGGCUAGACUGCC stands 0.26; under GGCAGAGCUCAACACAGCGUGGCAAACUAGCGGUGGCUAGACUGCC, 0.06. The value for GGCAGAGCUCAACACAGCUGGGCAAAGUGGCUGUUGGUAGACUGCC was 0.06; that for GACAGAGCUCAACACAGUUUGGCUAAGUGGCUGUGGCUAGACUGCC was 0.09. Under CGCAGAGCUCAACACAGCGUGGCGAAGUGGCUUUGGCUAGACUGCC stands 0; under GGCAGAGCUCAACACAGCGUGGCAAAGUGGCGGUGGCUAGUCUACC, 0.05. Take GCCAGAGCGCAACAAAGCGUGGCACAGUGGCUGUGGCUAGACUGCC: the self-cleavage came out at 0.03. Under GGCAGAGCUCAAGACAGCCUGGCAAAGUGGCUGUGGCUGGACUGCC stands 0.08.

As for GGGAAAACUCAACACAGCGUGGCAAAGUGGCUGUUGCUAGGCUGCC, the self-cleavage was found to be 0.21. As to GGCAGCGCUCAACACAGCUUGGCAGACUAGCUGUGGCUAGAGUGCC, the self-cleavage came out at 0.02. Under GGCAGAACUUAACACCGCGUGGCAAAGUGGCUGUGGAUAGACUGCC stands 0.01; under GUCAGAGCUCAACCCAGCGUGGCAAAGUGGCUGUGGCUAUACUGCC, 0.02. The value for GGCAGAGGUCAACACAGCGUGGCAAAGUGGCUGUGGGUAGACAGGC was 0.01; that for AGCAGAGCUCAACACAGAGUGGCAAAGUGGCUGUAACUAGACUUCC was 0.04.

As to GGCAGAGCUCAACACAGCGUGGCAGAGUGGUUGUGGGUAGACUGCC, the self-cleavage turned out to be 0.06.

On to GGCAGGGCUCAAAACAGCGUUGUAAAGUGGCUGUGGCUAGACUGGC, for which the self-cleavage turned out to be 0.25. Under AGCAGAGUUCAUCACAGCGUGGCAGAUUGGCUGUGGCUAGACUGCC stands 0.08. The value for GGCAGAGCUCAACAAAGCGUGGCAGAGUGGCUGUGGCUACACUGCC was 0.02; that for GUUAGAGCUCAACUCAGCGUGGCAAAGUGGCUCUGGCUAGCCUGCC was 0.03; that for GGCAGCGCUCAACACAGCGUAACAAAGUGGCGGUGGCUAGACUGCC was 0.18.

Turning to GGCAGAGCUCAACGCAGCGUGGCAAAGUGGCUGUGGCUAUACUGAC, the self-cleavage came out at 0.05. The value for GGAAGAGAUCAACAUAGCGUGGCAAAGAUGCUGUGGCUACACUGCC was 0.43; that for GGCAGCGCUAAACACAGCGUGGCAAAGCGGCUGUGGCCAGACUGCC was 0. Under GGCAGAGCUCAACCCCGGGUGGCAAAGCGGCUGUGGCUAGACUUCC stands 0.02. Under GGCAGUGCUCCACACAGCGUGUCAAAGUGGCUGUGGCUAGACUGCC stands 0.07. Turning to GGCAGAGCUAAACGCAGAGUGGCAAAGUGGAUGUGGCUAGACUGCC, the self-cleavage came out at 0.07.
